System: ECM of Caco-2 cells
Test: ECM binding by immunofluorescent imaging in Caco-2 cells
Settings: varying concentrations, 37° C., two hours

B1: API-E2: bovine lactoferrin purified from raw, untreated milk by cation exchange chromatography and filtration according to Example 1 (protein)
chain: APRKNVRWCTISQPEWFKCRRWQWRMKKLGAPSITCVRRAFALECIRAIAEKKADAVTLDGGMVFEAGRDPYKLRPVAAEIYGTKESPQTHYYAVAVVKKGSNFQLDQLQGRKSCHTGLGRSAGWVIPMGILRPYLSWTESLEPLQGAVAKFFSASCVPCIDRQAYPNLCQLCKGEGENQCACSSREPYFGYSGAFKCLQDGAGDVAFVKETTVFENLPEKADRDQYELLCLNNSRAPVDAFKECHLAQVPSHAVVARSVDGKEDLIWKLLSKAQEKFGKNKSRSFQLFGSPPGQRDLLFKDSALGFLRIPSKVDSALYLGSRYLTTLKNLRETAEEVKARYTRVVWCAVGPEEQKKCQQWSQQSGQNVTCATASTTDDCIVLVLKGEADALNLDGGYIYTAGKCGLVPVLAENRKTSKYSSLDCVLRPTEGYLAVAVVKKANEGLTWNSLKDKKSCHTAVDRTAGWNIPMGLIVNQTGSCAFDEFFSQSCAPGRDPKSRLCALCAGDDQGLDKCVPNSKEKYYGYTGAFRCLAEDVGDVAFVKNDTVWENTNGESTADWAKNLNREDFRLLCLDGTRKPVTEAQSCHLAVAPNHAVVSRSDRAAHVKQVLLHQQALFGKNGKNCPDKFCLFKSETKNLLFNDNTECLAKLGGRPTYEEYLGTEYVTAIANLKKCSTSPLLEACAFLTR
  Lactoferrin localization at the ECM: enrichment at the ECM was observed as concentration increased

— patent US20240317838A1, “LACTOFERRIN COMPOSITIONS AND METHODS OF USE” (LACTEA THERAPEUTICS LLC, priority 2021, published 2024)
